# Experimental data taken from PubChem BioAssay (Tox21).
# Several values for one entry are separate records, joined by “and”; a condition that tells them apart may be missing. Identical values can stand only once. The shares of active, inactive and inconclusive entries below differ from those in the screen. For part of these data: Potencies beside an inconclusive call are fits to weak or partial responses and may not hold up. Where a structure was tested more than once in an assay, its records may differ in their call. Activity calls are given as the source filed them. Unless noted, the call rests on the fitted dose curve; in most records, active means well fitted curve in the direction sought with a large enough effect in the repeat runs; inconclusive means weak or mixed curves; inactive means no such curve, though single readings can be large; an effect the other way counts as inactive or inconclusive.
# Legend:
# [1] = qHTS assay for identifying genotoxic compounds that show differential cytotoxicity against isogenic chicken DT40 cell lines with known DNA damage response pathways - wild type cell line (AID 743012); details: DT40 wild type chicken cells viability, CellTiter-Glo, 40 h; activity change, negative = cytotoxicity: at 68.4 µM (top of the series) unless noted; further: nearly all actives have a fitted effect of over 60% in size; further: potency means the concentration at half of the fitted maximal effect
# Method in brief: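 Viability of DNA repair-proficient chicken DT40 cells was assessed by CellTiter-Glo luminescence following 40 h compound exposure at 37 C/5% CO2.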
# [2] = qHTS assay for identifying genotoxic compounds that show differential cytotoxicity against isogenic chicken DT40 cell lines with known DNA damage response pathways - Rev3 mutant cell line (AID 743014); details: chicken DT40 Rev3-/- viability, CellTiter-Glo, 40 h; activity, negative = cytotoxicity: at 68.4 µM (top of the series); further: nearly all actives have a fitted effect of over 55% in size; further: potency means the concentration at half of the fitted maximal effect
# [3] = qHTS assay for identifying genotoxic compounds that show differential cytotoxicity against isogenic chicken DT40 cell lines with known DNA damage response pathways - Rad54/Ku70 mutant cell line (AID 743015); details: DT40 Rad54/Ku70 mutant viability, CellTiter-Glo, 40 h; activity change, negative = cytotoxicity: at 66.8 µM (top of the series); further: potency means the concentration at half of the fitted maximal effect; nearly all actives have a fitted effect of over 60% in size
# [4] = qHTS assay to identify small molecule antagonists of the androgen receptor (AR) signaling pathway using the MDA cell line - cell viability counter screen (AID 743041; further: nearly all actives have a fitted effect of over 45% in size; further: potency means the concentration at half of the fitted maximal effect; on viability change, negative = cytotoxic: on the % scale 0 is the no-effect control and ±100 the full control effect); details: MDA-kb2 viability, CellTiter-Fluor, 16 h, cells co-treated with R1881 androgen agonist; viability change, negative = cytotoxic: at 70.3 µM (top of the series) unless noted
# Method in brief: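 qHTS viability read-out; MDA-kb2 AR-luc; R1881-stimulated; 16 h exposure at 37C, 0% CO2; CellTiter-Fluor, 30 min; fluorescence intensity.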
# [5] = molecular target: Estrogen receptor (Homo sapiens) (UniProt P03372); assay: qHTS assay to identify small molecule antagonists of the estrogen receptor alpha (ER-alpha) signaling pathway (AID 743069; active means well fitted curve in the direction sought with a large enough effect in the signal ratio in the repeat runs, not every such curve was filed as active; inconclusive means weak or mixed curves, or effect the other way; inactive means no such curve, though single readings can be large or run the other way; the % refers to the signal ratio; further: potency means the concentration at half of the fitted maximal effect; on activity, negative = inhibition: on the % scale 0 is the no-effect control and ±100 the full control effect); details: HEK293 ER-alpha-UAS-bla, beta-lactamase ratio, antagonist mode; activity, negative = inhibition: at 69.4 µM (top of the series) unless noted
# Chain of UniProt P03372 (P03372 whole entry, looked up): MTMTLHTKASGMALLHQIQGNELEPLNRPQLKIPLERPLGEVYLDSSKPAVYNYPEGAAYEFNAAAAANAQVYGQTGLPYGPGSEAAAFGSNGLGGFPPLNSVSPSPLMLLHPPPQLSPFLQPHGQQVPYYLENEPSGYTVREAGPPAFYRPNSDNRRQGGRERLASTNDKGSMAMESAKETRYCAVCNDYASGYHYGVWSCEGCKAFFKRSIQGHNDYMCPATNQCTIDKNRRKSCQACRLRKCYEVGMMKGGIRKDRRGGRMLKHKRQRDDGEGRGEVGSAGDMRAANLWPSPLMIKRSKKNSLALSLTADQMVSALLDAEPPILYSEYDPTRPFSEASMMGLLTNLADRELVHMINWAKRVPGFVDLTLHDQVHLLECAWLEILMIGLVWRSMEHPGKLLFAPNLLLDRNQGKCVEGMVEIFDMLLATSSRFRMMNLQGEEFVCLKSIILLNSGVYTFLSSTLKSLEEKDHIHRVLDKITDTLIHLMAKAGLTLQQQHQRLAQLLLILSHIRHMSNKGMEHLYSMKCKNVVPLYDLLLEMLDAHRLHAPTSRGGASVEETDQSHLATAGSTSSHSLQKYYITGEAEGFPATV
# Method in brief: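 Screening used a UAS-driven beta-lactamase reporter integrated into HEK293 cells expressing ER-alpha, stimulated with 17beta-estradiol alongside test compounds over 18 hr at 37C; signal came from LiveBLAzer B/G FRET fluorescence.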
# [6] = molecular target: Estrogen receptor (Homo sapiens) (UniProt P03372); assay: qHTS assay to identify small molecule agonists of the estrogen receptor alpha (ER-alpha) signaling pathway (AID 743075; calls by dose curve; further: potency means the concentration at half of the fitted maximal effect)
# [7] = qHTS assay to identify small molecule antagonists of the thyroid receptor (TR) signaling pathway - cell viability counter screen (AID 743064); details: GH3.TRE-Luc viability, CellTiter-Fluor, 24 h; activity change, negative = cytotoxic: at 70.3 µM (top of the series) unless noted; further: nearly all actives have a fitted effect of over 50% in size; further: potency means the concentration at half of the fitted maximal effect; on activity change, negative = cytotoxic: on the % scale 0 is the no-effect control and ±100 the full control effect
# Method in brief: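 In rat pituitary GH3.TRE-Luc reporter cells co-exposed to compound and 1 nM T3 for 23.5 h, cytotoxicity was assessed with CellTiter-Fluor in the same wells, read by fluorescence.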
# [8] = qHTS assay to identify small molecule antagonists of the thyroid receptor (TR) signaling pathway (AID 743065); further: potency means the concentration at half of the fitted maximal effect; nearly all actives have a fitted effect of over 55% in size
# Method in brief: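 GH3.TRE-Luc rat pituitary cells carrying two TR response elements driving luciferase were plated for 4 h, given compound plus 1 nM T3 (final), and incubated 23.5 h at 37 C. ONE-Glo luminescence measured reporter inhibition; CellTiter-Fluor fluorescence tracked cytotoxicity.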
# [9] = qHTS assay to identify small molecule antagonists of the estrogen receptor alpha (ER-alpha) signaling pathway - cell viability counter screen (AID 743074; calls by dose curve; further: potency means the concentration at half of the fitted maximal effect; nearly all actives have a fitted effect of over 45% in size)
# Aromatase (Homo sapiens) = Aromatase (Homo sapiens) (UniProt P11511); assay: qHTS assay to identify aromatase inhibitors (AID 743083); details: MCF-7 aro ERE, testosterone-driven ERE luciferase, 24 h; activity, negative = inhibition: at 70.3 µM (top of the series); further: potency means the concentration at half of the fitted maximal effect; nearly all actives have a fitted effect of over 55% in size
# Chain of UniProt P11511 (P11511 whole entry, looked up): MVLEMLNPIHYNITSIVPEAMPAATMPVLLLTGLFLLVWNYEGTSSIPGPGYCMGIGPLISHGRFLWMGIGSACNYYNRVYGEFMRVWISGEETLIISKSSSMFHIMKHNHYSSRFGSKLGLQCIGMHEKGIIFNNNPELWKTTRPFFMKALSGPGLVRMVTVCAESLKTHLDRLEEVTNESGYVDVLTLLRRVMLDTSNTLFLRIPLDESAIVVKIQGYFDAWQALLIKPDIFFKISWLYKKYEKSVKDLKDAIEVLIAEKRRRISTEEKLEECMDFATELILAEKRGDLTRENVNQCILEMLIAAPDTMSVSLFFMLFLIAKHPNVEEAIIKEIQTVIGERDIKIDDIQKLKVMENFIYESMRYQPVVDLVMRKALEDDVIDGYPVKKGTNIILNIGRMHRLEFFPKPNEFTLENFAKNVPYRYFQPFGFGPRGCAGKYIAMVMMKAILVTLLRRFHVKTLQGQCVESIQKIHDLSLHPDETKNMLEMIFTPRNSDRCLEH
# [10] = molecular target: Androgen receptor (Homo sapiens) (UniProt P10275); assay: qHTS assay to identify small molecule antagonists of the androgen receptor (AR) signaling pathway (AID 743035; active means well fitted inhibition curve with a large enough effect in the signal ratio in the repeat runs, not every such curve was filed as active; inconclusive means weak or mixed curves, or effect the other way; inactive means no such curve, though single readings can be large or run the other way; the % refers to the signal ratio; further: on the % scale 0 is the no-effect control and ±100 the full control effect); details: HEK293 AR-UAS-bla, R1881-stimulated, beta-lactamase FRET, 16 h; activity change, negative = inhibition: at 58.5 µM (top of the series) unless noted
# Chain of UniProt P10275 (P10275 whole entry, looked up): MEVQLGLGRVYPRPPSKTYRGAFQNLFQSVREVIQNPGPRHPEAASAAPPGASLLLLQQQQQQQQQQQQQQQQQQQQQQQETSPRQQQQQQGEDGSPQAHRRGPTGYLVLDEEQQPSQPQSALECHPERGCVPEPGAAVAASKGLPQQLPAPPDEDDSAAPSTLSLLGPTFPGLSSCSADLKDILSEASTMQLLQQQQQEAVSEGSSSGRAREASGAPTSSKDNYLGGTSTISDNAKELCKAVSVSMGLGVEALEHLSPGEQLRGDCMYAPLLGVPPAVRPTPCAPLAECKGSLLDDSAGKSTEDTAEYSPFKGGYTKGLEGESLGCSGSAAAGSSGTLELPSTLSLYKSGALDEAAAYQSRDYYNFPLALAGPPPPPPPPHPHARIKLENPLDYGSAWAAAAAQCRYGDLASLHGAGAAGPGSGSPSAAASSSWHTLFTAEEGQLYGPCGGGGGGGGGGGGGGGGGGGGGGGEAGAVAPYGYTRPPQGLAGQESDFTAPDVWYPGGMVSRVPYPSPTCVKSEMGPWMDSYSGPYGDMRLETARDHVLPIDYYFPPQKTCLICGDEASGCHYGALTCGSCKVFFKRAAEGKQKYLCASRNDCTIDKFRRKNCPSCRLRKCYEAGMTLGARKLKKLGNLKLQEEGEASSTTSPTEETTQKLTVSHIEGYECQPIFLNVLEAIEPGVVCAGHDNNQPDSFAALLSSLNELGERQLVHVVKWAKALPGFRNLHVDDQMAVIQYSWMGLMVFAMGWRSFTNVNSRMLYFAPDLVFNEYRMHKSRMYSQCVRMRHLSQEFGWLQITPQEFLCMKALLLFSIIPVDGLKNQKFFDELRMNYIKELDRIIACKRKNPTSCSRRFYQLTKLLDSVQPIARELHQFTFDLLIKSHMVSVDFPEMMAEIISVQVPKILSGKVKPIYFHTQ
# Method in brief: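 Reporter HEK293 cells were exposed to compounds and R1881 overnight (16 h, 37C); beta-lactamase activity was then quantified by FRET fluorescence.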
# [11] = molecular target: Androgen receptor (Homo sapiens) (UniProt P10275); assay: qHTS assay to identify small molecule agonists of the androgen receptor (AR) signaling pathway (AID 743036; active means well fitted activation curve with a large enough effect in the signal ratio in the repeat runs, with a control signal flat, not every such curve was filed as active; inconclusive means weak or mixed curves, or effect the other way; inactive means no such curve, though single readings can be large or run the other way; the % refers to the signal ratio; further: potency means the concentration at half of the fitted maximal effect); details: HEK293 AR-UAS-bla GripTite, beta-lactamase FRET ratio, 16 h; activation: at 62.4 µM (top of the series) unless noted
# Method in brief: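 Cell-based FRET reporter assay: HEK293 line with a UAS-beta-lactamase construct, compounds added in DMSO, 16 h exposure at 37C, then 2 h substrate step at room temperature and fluorescence intensity read.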
# [12] = qHTS assay to identify small molecule antagonists of the androgen receptor (AR) signaling pathway - cell viability counter screen (AID 743033; further: potency means the concentration at half of the fitted maximal effect; nearly all actives have a fitted effect of over 45% in size); details: AR-bla HEK293 viability, CellTiter-Glo luminescence, 16 h; activity change, negative = cytotoxicity: at 58.5 µM (top of the series) unless noted
# [13] = molecular target: Estrogen receptor (Homo sapiens) (UniProt P03372); assay: qHTS assay to identify small molecule agonists of the estrogen receptor alpha (ER-alpha) signaling pathway using the BG1 cell line (AID 743079); details: BG1Luc4E2 cells, ERE-luciferase agonist, 22 h; activation: at 70.3 µM (top of the series) unless noted; further: potency means the concentration at half of the fitted maximal effect; nearly all actives have a fitted effect of over 20% in size
# [14] = qHTS assay to identify small molecule antagonists of the estrogen receptor alpha (ER-alpha) signaling pathway using the BG1 cell line (AID 743080; calls by dose curve;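 further: BG1 cells stimulated with 17beta-estradiol alongside compound; on the % scale 0 is the no-effect control and ±100 the full control effect; nearly all actives have a fitted effect of over 25% in size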); details: BG1Luc4E2 ERE-luciferase antagonist mode, luminescence; activity change, negative = inhibition: at 70.3 µM (top of the series) unless noted
# Method in brief: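 Luminescence from a 4×ERE-luciferase reporter in BG1-Luc-4E2 cells served as read-out. Cells, pre-cultured 5 days in stripped-serum phenol-red-free medium, were exposed to compound with 17beta-estradiol co-stimulation for 21.5 h at 37 C.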
# [15] = qHTS assay to identify small molecule antagonists of the estrogen receptor alpha (ER-alpha) signaling pathway using the BG1 cell line - cell viability counter screen (AID 743081); details: BG1Luc4E2 viability, CellTiter-Fluor, 22 h; activity change, negative = cytotoxicity: at 70.3 µM (top of the series) unless noted;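 further: compound given together with 17beta-estradiol as the ER stimulus; potency means the concentration at half of the fitted maximal effect; nearly all actives have a fitted effect of over 45% in size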
# Tags describe the fitted curve by direction and shape or compound fluorescence and quenching.
compound,measurement,setting,value
S=c1nccc[nH]1,Potency,[1],inconclusive: 68.7 µM [cytotoxic]
same,Potency,[2],inconclusive: 68.7 µM [cytotoxic]
same,Potency,[3],"inconclusive: 68.7 µM [cytotoxic, single point]"
same,Potency,[4],inactive
same,Potency,[5],inactive
same,Potency,[6],"inconclusive: 49 µM [activator, partial curve]"
CCCCCCCCCCCCN1CCCCCC1=O,Potency,[1],"inconclusive: 27.3 µM [cytotoxic, single point]"
same,Potency,[2],inconclusive: 27.3 µM [cytotoxic]
same,Potency,[3],"inconclusive: 27.3 µM [cytotoxic, single point]"
same,Potency,[7],inactive
same,Potency,[8],"inconclusive: 27.3 µM [inhibitor, single point]"
same,Potency,[9],active: 43.6 µM
same,Potency,Aromatase (Homo sapiens),"inconclusive: 38.6 µM [inhibitor, partial curve, poor fit]"
BrCc1cccc(Oc2ccccc2)c1,Potency,[1],"inconclusive: 68.6 µM [cytotoxic, single point]"
same,Potency,[2],"inconclusive: 48.6 µM [cytotoxic, partial curve]"
same,Potency,[3],inconclusive: 61.1 µM [cytotoxic]
same,Potency,[10],inactive
same,Potency,[11],inconclusive: 54.9 µM
same,Potency,[4],"inconclusive: 27.3 µM [rising, partial curve, poor fit]"
CCCCC/C(=C\c1ccccc1)CO,Potency,[1],"inconclusive: 21.4 µM [rising, partial curve, poor fit]"
same,Potency,[2],"inconclusive: 76 µM [cytotoxic, partial curve, poor fit]"
same,Potency,[3],"inconclusive: 76 µM [cytotoxic, single point]"
same,Potency,[12],"inconclusive: 13.6 µM [cytotoxic, partial curve, poor fit]"
same,Potency,[8],"inconclusive: 67.8 µM [inhibitor, single point]"
Cc1oc(=O)oc1CN1CCN(c2cc3c(cc2F)c(=O)c(C(=O)O)c2n3C(C)S2)CC1 (configuration not stated),Potency,[1],inconclusive: 13.3 µM [cytotoxic]
same,Potency,[2],"inconclusive: 13.3 µM [cytotoxic, partial curve, poor fit]"
same,Potency,[3],"inconclusive: 13.3 µM [cytotoxic, single point]"
same,Potency,[7],"inconclusive: 29.8 µM [cytotoxic, single point]"
same,Potency,[8],inconclusive: 33.5 µM [inhibitor]
same,"activity, negative = inhibition",[5],inconclusive: 34.5%
same,Potency,[6],active: 23.9 µM [activator]
O=c1cccccc1O,Potency,[1],"inconclusive: 2.21 µM [rising, partial curve]"
same,Potency,[2],active: 27.8 µM
same,Potency,[3],active: 55.5 µM
same,Potency,[12],active: 44.5 µM
same,Potency,[7],active: 19.7 µM
same,Potency,Aromatase (Homo sapiens),"inconclusive: 27.8 µM [inhibitor, partial curve]"
c1ccc2c(c1)Oc1ccccc1S2,Potency,[1],"inconclusive: 31.1 µM [rising, partial curve, poor fit]"
same,Potency,[2],"inconclusive: 78.2 µM [cytotoxic, partial curve, poor fit]"
same,Potency,[3],"inconclusive: 61.1 µM [cytotoxic, partial curve, poor fit]"
same,Potency,[9],"inconclusive: 22.2 µM [cytotoxic, single point]"
same,Potency,[13],active: 61.1 µM
same,Potency,[14],inactive
CO[C@H]1C=CO[C@@]2(C)Oc3c(C)c(O)c4c(O)c(c(/C=N/N5CCN(C)CC5)c(O)c4c3C2=O)NC(=O)/C(C)=C\C=C[C@H](C)[C@H](O)[C@@H](C)[C@@H](O)[C@@H](C)[C@H](OC(C)=O)[C@@H]1C,Potency,[1],"inconclusive: 1.38 µM [rising, single point]"
same,Potency,[2],"active: 29.8 µM and inconclusive: 24.5 µM [cytotoxic, partial curve] and active: 24.6 µM"
same,Potency,[3],"inconclusive: 19.4 µM [cytotoxic, partial curve]"
same,Potency,[7],"active: 26.6 µM and inconclusive: 17.3 µM [cytotoxic, partial curve] and active: 34.8 µM"
same,Potency,[8],"inconclusive: 26.6 µM [inhibitor, partial curve] and inconclusive: 43.8 µM [inhibitor, partial curve, poor fit]"
same,Potency,[15],"active: 23.7 µM and inconclusive: 9.74 µM [cytotoxic, partial curve] and active: 34.8 µM"
same,Potency,Aromatase (Homo sapiens),"inconclusive: 33.5 µM [inhibitor] and inconclusive: 54.8 µM [inhibitor, partial curve]"
Cc1oc(-c2ccccc2)nc1CCOc1cccc2c1ccn2CCC(=O)O,Potency,[1],inactive
same,"activity, negative = cytotoxicity",[2],inconclusive: -34.5% [cytotoxic]
same,Potency,[3],"inconclusive: 68.6 µM [cytotoxic, single point]"
same,Potency,[4],inactive
same,Potency,[7],"inconclusive: 48.6 µM [cytotoxic, partial curve, poor fit]"
same,Potency,[8],inconclusive: 61.1 µM [inhibitor]
same,Potency,[5],"inconclusive: 49 µM [fluorescent, partial curve]"
